Results as given in the supplement of paper PMC7826260.
Some of the results follow. The data describe in vitro nicking of single-stranded DNA by Rep domains (1 h at 37 °C, 3 µM enzyme); the outer parts of the 90-letter strands are left off. Uncut reads are compared with the no-enzyme pool on a log2 scale; more negative means more cut, near 0 not cut, and no call is made. The scaling is to total reads; values above 0 arise when much of the pool is cut.

Assays:
Experiment in all cases: uncleaved DNA left, log2 of reads against the no-enzyme library (log2 ratio); higher = less cleavage (more negative = more Rep cleavage of the k-mer); sequences stand for … in CTCGTCCG…ACCGGAGA
[1] = system: T1, Rep nickase domain of Muscovy duck circovirus
T1 sequence (residues 1-111 of Rep, tag left off): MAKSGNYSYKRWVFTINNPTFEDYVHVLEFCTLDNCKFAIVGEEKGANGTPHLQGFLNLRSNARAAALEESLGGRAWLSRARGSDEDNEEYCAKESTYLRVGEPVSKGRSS
Description: (§1)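 A pool of 90-nt single-stranded DNAs with seven random bases just before the constant AC of the nick site (name = the seven bases) was cut by 3 µM recombinant His6-SUMO-tagged Rep nickase domain (300 nM DNA, 50 mM HEPES pH 8.0, 50 mM NaCl, 1 mM MnCl2, 1 h, 37 °C, three replicates). Uncut DNA was amplified and sequenced.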

[2] = system: T2, Rep nickase domain of banana bunchy top virus
T2 sequence (residues 1-94 of Rep, tag left off): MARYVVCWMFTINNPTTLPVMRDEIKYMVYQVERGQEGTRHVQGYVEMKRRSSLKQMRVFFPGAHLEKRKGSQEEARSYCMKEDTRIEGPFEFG
Description: as §1

[3] = system: T3, Rep nickase domain of cabbage leaf curl virus
T3 sequence (residues 1-116 of Rep, tag left off): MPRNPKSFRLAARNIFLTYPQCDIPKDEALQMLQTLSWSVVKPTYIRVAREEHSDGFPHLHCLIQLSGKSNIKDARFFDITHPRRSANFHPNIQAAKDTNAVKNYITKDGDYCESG
Description: as §1

[4] = system: T4, Rep nickase domain of chickpea chlorotic dwarf virus
T4 sequence (residues 1-124 of Rep, tag left off): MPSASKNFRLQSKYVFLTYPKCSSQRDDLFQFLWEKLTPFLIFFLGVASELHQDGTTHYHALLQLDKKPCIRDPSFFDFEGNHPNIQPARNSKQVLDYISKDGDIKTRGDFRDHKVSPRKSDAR
Description: as §1

[5] = system: T5, Rep nickase domain of faba bean necrotic yellows virus
T5 sequence (residues 1-98 of Rep, tag left off): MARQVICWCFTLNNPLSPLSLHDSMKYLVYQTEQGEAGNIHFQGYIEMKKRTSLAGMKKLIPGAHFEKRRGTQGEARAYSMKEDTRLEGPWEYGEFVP
Description: as §1

[6] = system: T6, Rep nickase domain of maize striate mosaic virus
T6 sequence (residues 1-117 of Rep, tag left off): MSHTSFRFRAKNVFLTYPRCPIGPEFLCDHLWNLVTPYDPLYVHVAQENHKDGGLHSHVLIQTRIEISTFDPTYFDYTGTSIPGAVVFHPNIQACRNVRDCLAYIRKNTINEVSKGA
Description: as §1

[7] = system: T7, Rep nickase domain of porcine circovirus 2
T7 sequence (residues 2-116 of Rep, tag left off): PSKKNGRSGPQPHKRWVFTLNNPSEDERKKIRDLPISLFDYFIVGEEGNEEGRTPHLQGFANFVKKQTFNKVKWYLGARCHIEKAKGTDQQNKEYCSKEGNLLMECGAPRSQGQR
Description: as §1

[8] = system: T8, Rep nickase domain of tomato golden mosaic virus
T8 sequence (residues 1-124 of Rep, tag left off): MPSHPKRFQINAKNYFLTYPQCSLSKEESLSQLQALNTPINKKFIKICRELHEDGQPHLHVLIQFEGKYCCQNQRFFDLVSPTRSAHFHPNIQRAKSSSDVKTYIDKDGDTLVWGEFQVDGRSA
Description: as §1

[9] = system: T9, Rep nickase domain of tomato yellow leaf curl virus
T9 sequence (residues 1-136 of Rep, tag left off): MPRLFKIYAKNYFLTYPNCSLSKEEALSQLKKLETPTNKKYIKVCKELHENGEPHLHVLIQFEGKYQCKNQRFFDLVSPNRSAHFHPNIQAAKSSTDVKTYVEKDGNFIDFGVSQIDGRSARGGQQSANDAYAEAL
Description: as §1

[10] = system: T10, Rep nickase domain of wheat dwarf virus
T10 sequence (residues 1-137 of Rep, tag left off): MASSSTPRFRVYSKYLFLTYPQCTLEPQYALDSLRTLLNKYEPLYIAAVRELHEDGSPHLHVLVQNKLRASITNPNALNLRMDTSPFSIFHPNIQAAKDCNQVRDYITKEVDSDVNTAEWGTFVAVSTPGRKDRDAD
Description: as §1

Sequence	uncleaved DNA left (log2) [1]	uncleaved DNA left (log2) [2]	uncleaved DNA left (log2) [3]	uncleaved DNA left (log2) [4]	uncleaved DNA left (log2) [5]	uncleaved DNA left (log2) [6]	uncleaved DNA left (log2) [7]	uncleaved DNA left (log2) [8]	uncleaved DNA left (log2) [9]	uncleaved DNA left (log2) [10]
CAACCGC	-0.116	-0.116	-0.572	-1.25	-0.0635	-0.784	-0.327	0.0113	-0.105	-0.229
CCGTTTA	-0.106	-0.0087	-0.0887	-0.733	-0.237	-0.251	-0.228	-0.117	-0.161	-0.126
GCAGCAA	-0.116	-0.0841	-0.154	0.0891	-0.22	-0.485	-0.00517	-0.0548	-0.0319	-0.0697
GGGAGCC	-0.0179	0.135	0.753	1.83	-0.114	2.13	0.128	0.022	0.0494	0.176
TCTAGAC	0.0208	-0.197	0.213	0.0464	0.0112	0.0638	0.118	-0.0172	-0.104	-0.0386
AGCTGCA	0.0424	0.00784	0.0344	0.69	0.0581	0.393	0.153	0.0104	0.00517	0.0694
AAATCAT	-0.836	0.164	-3.39	-2.96	0.0897	-1.23	-3.37	-1.44	0.00138	-1.96
AGCACTA	-0.0257	0.0126	-0.00457	0.492	-0.0169	1.41	-0.0206	0.0969	-0.00537	0.136
ATTACTC	0.00711	-0.0403	-0.0273	-2.09	0.0357	-0.675	0.049	-0.00871	0.00308	0.0842
AAGTGGA	-0.0679	-0.0427	0.0714	0.28	-0.0811	0.274	-2.53	0.026	-0.158	-0.19
GAAATCG	-0.0709	-0.0764	-0.972	-0.236	-0.136	-0.996	0.0796	-0.109	-0.0652	-0.136
AGGTGTT	-1.39	-0.197	-0.702	-0.65	-0.541	1.3	-3.18	-0.118	-0.129	-0.414
GCAGTAC	0.0792	0.0111	0.0274	0.0726	0.0252	-0.151	0.0826	0.0561	-0.0259	0.0133
GCCCACC	-0.0275	0.0232	0.148	0.123	-0.0477	0.195	-0.144	-0.0561	-0.183	0.051
TGGTCAT	-0.0103	0.0141	0.819	1.94	-0.0719	2.27	0.189	-0.0397	0.0275	0.131
